Screen size: about 48,000 compounds; about 1,200 (2.5%) were called active. Inconclusive results (about 2%) are left out.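 The calls were made as follows: active = activation of at least 60% and not above a set upper limit (about 1 call in 100 departs from these limits); inconclusive = activation of 40% to 60%, or above that upper limit; inactive = activation under 40%.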 Some of the results follow.

Sequence of UniProt O75388 (O75388 whole entry, looked up): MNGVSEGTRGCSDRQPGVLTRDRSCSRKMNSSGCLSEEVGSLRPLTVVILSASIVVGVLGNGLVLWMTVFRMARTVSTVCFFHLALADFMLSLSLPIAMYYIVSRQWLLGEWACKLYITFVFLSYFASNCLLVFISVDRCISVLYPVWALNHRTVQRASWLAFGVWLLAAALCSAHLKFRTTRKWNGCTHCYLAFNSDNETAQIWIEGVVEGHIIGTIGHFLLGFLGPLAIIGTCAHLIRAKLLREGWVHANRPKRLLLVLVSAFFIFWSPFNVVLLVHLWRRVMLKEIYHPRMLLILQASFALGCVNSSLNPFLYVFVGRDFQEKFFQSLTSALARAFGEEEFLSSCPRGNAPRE

For this test, the target named is Probable G-protein coupled receptor 32 (Homo sapiens) (UniProt O75388). The test can be described thus: qHTS for Agonists of Human Resolvin D1 Receptor DRV1. Also: 0% is about no effect. As to conditions: CHO-K1 GPR32 beta-arrestin PathHunter luminescence, 90 min; at 76.9 µM; hits give high values; zero percent set by DMSO-only wells. An outline of the steps:
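Step 1: seed CHO-K1 GPR32 beta-arrestin cells, 2,500/well, overnight at 37 °C. Step 2: add compounds, 90 min at 37 °C. Step 3: detection reagent, 1 h ambient, then luminescence.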
(Quantitative high-throughput screening tests each substance at several concentrations.)
Take `COc1ccc(-c2nn(C)c3sc(C(=O)NCCN(C)C)cc23)cc1OC`: the activation is inactive: 27.6%. The same measure for `COc1ccc(CNC(=O)CN2N=C(c3ccc(Cl)cc3)CCC2=O)cc1`: inactive: -15%; for `COc1cccc(NC(=O)C2CCCN(c3ncnc4onc(-c5ccc(F)cc5)c34)C2)c1` (stereo not given): inactive: -25.3%; for `CCc1ccc(C(=O)c2cn(CC(=O)NCCc3ccccc3)c3nc(C)ccc3c2=O)cc1`: inactive: 46.9%. The value for `COc1ccc(C(=O)CC2(O)C(=O)N(Cc3ccccc3)c3ccc(Br)cc32)cc1` (stereo not given) was inactive: -5.81%; that for `COc1ccc(Cn2c(SCc3ccc(C(=O)NCc4ccc(C)cc4)cc3)nc3cccnc32)cc1` was inactive: 8.22%.

For `O=C(NCCc1ccccc1)c1ccc2c(c1)N(Cc1ccc(Cl)cc1)C(=O)c1ccccc1S2(=O)=O`, the activation was inactive: -41.4%. The value for `Cc1ccc(N2CC(NC(=O)CCCc3ccccc3)CC2=O)cc1` (stereo not given) was inactive: -2.16%; that for `O=C(NCCSc1c[nH]c2ccccc12)c1ccc(Cl)cc1` was inactive: -17.3%. `Cc1ccc(C2=Nc3ccccc3N=C(c3ccc(F)cc3)C2)c(O)c1`: the activation is inactive: -2.46%. Take `CCN(c1ccccc1C)S(=O)(=O)c1nnc(NC(=O)c2ccc(OC)c(OC)c2)s1`: the activation is inactive: 6.34%. For `CCc1nc(SC)ncc1C(=O)NCc1cccc(Br)c1`, the activation was inactive: -3.53%. The value for `Cc1cc(O)c2c(C)c(CC(=O)NCc3ccccc3Cl)c(=O)oc2c1` was inactive: -15.3%. In the case of `COc1ccc(CNC(=O)c2ccc(CN3C(=O)C(C)=C(c4ccc(C)cc4)S3(=O)=O)cc2)cc1`, the activation was inactive: -11.7%. The value for `O=C(Cn1nc(Cc2cccnc2)c2ccccc2c1=O)N1CCN(c2ccccc2F)CC1` was inactive: -67.7%. Consider `Cc1ccc(Cl)cc1N1CCN(c2nc3ccc(C(=O)c4ccccc4)cc3n3cnnc23)CC1`, for which the activation was inactive: -2.77%. The same measure for `Cc1ccc(C)c(N2CCN(C(=O)C3CCC(CNS(=O)(=O)c4cccs4)CC3)CC2)c1` (stereo not given): inactive: 0.939%.

`CCC1CN(C(=O)N2CCC(C(=O)NCCc3ccc(OC)c(OC)c3)CC2)c2ccccc2O1` (stereo not given): the activation is inactive: -9.6%. Regarding `CCOC(=O)N1CCc2c(sc3c2c(=O)n(-c2ccc(CC)cc2)c(=O)n3Cc2cccc(Cl)c2)C1`, the activation is inactive: -13.8%. The same measure for `Cc1ccc(CNC(=O)CSc2c(C)cnc3c2c(=O)n(C)c(=O)n3C)cc1`: inactive: 19%. With `CC1CCN(S(=O)(=O)c2ccc3nc(NCc4ccc(N(C)C)cc4)ccc3c2)CC1`, the activation is inactive: -17.6%. The same measure for `Cc1ccc(C)c(N2CCN(C(=O)c3cc4cc5ccc(C)cc5nc4o3)CC2)c1`: inactive: 9.24%. The value for `Cc1ccc(NC(=O)CN2C(=O)C(c3ccc(F)cc3)=NC23CCCCCC3)c(C)c1` was inactive: -25%. The same measure for `CCCCOc1ccc(C2C(=O)N(C3CCCCC3)CC(=O)N2C2CCCCC2)cc1` (stereo not given): inactive: -1.21%; for `CCn1cc(C(=O)OCC(=O)Nc2cc(Cl)ccc2C)c(=O)c2ccc(C)nc21`: inactive: 0.0218%. Turning to `C=CCc1cc(OC)c(O)c(C(=O)NCCO)c1`, the activation is inactive: 7.08%.

As to `CCc1cccc(NC(=O)Cn2c(=O)n(CCCCCC(=O)NCc3ccc(F)cc3)c(=O)c3sccc32)c1`, the activation was inactive: 10.2%.

With `Cc1cccc(NC(=O)Nc2cccs2)c1C`, the activation was inactive: -19.3%.

For `CO[C@@]1(NC(=O)C(C(=O)O)c2ccc(O)cc2)C(=O)N2C(C(=O)O)=C(CSc3nnnn3C)CO[C@@H]21` (stereo not given in full), the activation is active: 63%.

Consider `CCOC(=O)c1ccccc1NC(=O)CN(c1ccccc1)S(=O)(=O)c1ccc(OCC)cc1`, for which the activation was inactive: 3.67%. The value for `COc1ccc(C2C=C(c3ccccc3)Nc3nc(NC(C)=O)nn32)cc1` (stereo not given) was inactive: 15%; that for `CCn1nc(C)c2c(-c3ccccc3)cc(=O)n(C(C)C(=O)Nc3ccc(OC)c(OC)c3)c21` (stereo not given) was inactive: -12.3%; that for `Cc1ccc(C)c(NC(=O)Cn2ncc3c(C)n(Cc4ccc(F)cc4)c(C)c3c2=O)c1` was inactive: -8.72%. `CCCCCCc1c(C)c2c(cc(C)c3c(C)coc32)oc1=O`: the activation was inactive: 4.28%. The same measure for `Cc1cc(C)cc(NC(=O)Cn2nnc(-c3ccccc3F)n2)c1`: inactive: 14.2%; for `CC1=C(c2ccc(C)c(C)c2)S(=O)(=O)N(Cc2ccc(C(=O)NCc3ccccc3F)cc2)C1=O`: inactive: -0.87%.

With `N#C/C(=C\c1ccc(O)cc1)C(=O)NCC1CCCO1` (stereo not given), the activation was inactive: -39.5%.

In the case of `COc1ccc(-c2cc(C(F)(F)F)n3nc(C)c(-c4ccccc4)c3n2)cc1OC`, the activation is inactive: 1.52%.

As to `O=C(CCc1cn(Cc2ccc(F)cc2)c2ccccc12)NC1CCCCC1`, the activation was inactive: -9.48%. For `Nc1cc(C(F)(F)F)ccc1S`, the activation is inactive: 30.5%. The same measure for `COc1ccc(OC)c(CNC(=O)CCCn2c(=O)c3cccn3c3cccnc32)c1`: inactive: -5.2%. For the compound `CCOc1ccccc1NC(=O)Cn1c(=O)n(Cc2ccc(OC)cc2)c(=O)c2oc3ccccc3c21`, the activation is inactive: -3.58%. The same measure for `O=C(Nc1ccccc1F)c1cnc(N2CCCCC2)c2ccccc12`: inactive: -16%; for `Cc1oc(-c2ccccc2F)nc1Cn1c(SCc2cccc(C(F)(F)F)c2)nc2ccncc21`: inactive: 12%; for `O=C1CC[C@@H](C(=O)O)N1`: inactive: 0.226%. The value for `CCc1ccccc1NC(=O)c1cc(-c2ccc(Cl)s2)nc2ccccc12` was inactive: 4.83%; that for `Cc1cc2c(cc1S(=O)(=O)Nc1ccc(C(C)C)cc1)OCCN2C` was inactive: -9.61%; that for `COc1cc2c(CCNC(C)=O)c[nH]c2cc1O` was inactive: 9.53%. The value for `COc1ccc(N(CC(=O)Nc2cc(OC)cc(OC)c2)S(=O)(=O)c2c(C)noc2C)cc1` was inactive: -3.09%; that for `COc1ccccc1-c1nnc(C2CCN(C(=O)c3ccccc3C)CC2)o1` was inactive: 17.2%; that for `COc1ccccc1NC(=O)c1cc2c(=O)n(Cc3cccs3)ccc2nc1C` was inactive: -10.8%. For `Cc1cccc(-n2cnc3cc(C(=O)NCc4ccccc4Cl)ccc32)c1`, the activation was inactive: -11.1%. Regarding `Cc1ccc(O)c(NC(=O)CCS(=O)(=O)c2nc(-c3cccs3)cc(C(F)(F)F)n2)c1`, the activation was inactive: -28.7%. The value for `Cc1cccc(-n2c(C)cc(C(=O)C(=O)Nc3nncs3)c2C)c1` was inactive: 8.84%; that for `COc1ccc(CCNc2ncnc3c2c(-c2ccccc2)cn3-c2ccc(Cl)cc2)cc1OC` was inactive: -38.6%; that for `COC(=O)c1ccc(NC(=O)C2CCN(c3ncnc4c3nc3n4CCCCC3)CC2)cc1` was inactive: -11.2%. The same measure for `COc1cc(CN(C(=O)c2ccc(OC(C)C)cc2)c2ccccn2)cc(OC)c1OC`: inactive: 32.5%. Take `COc1cccc(-c2nc(CS(=O)(=O)CC(=O)Nc3cccc(C(C)=O)c3)c(C)o2)c1`: the activation is inactive: -22.3%. The value for `Cc1cc(C)cc(Nc2cc(C(=O)NC3CCCCC3)c3ccccc3n2)c1` was inactive: 5.58%; that for `Cc1cc(C)cc(NC(=O)CSc2c(C(C)C)cnc3c2c(=O)n(C)c(=O)n3C)c1` was inactive: -6.03%.

With `Cc1cc(Nc2nc3ccccc3c3nnc(C)n23)ccc1Br`, the activation is inactive: 23.3%.

Regarding `Fc1ccc(-c2cc3ncc4c(n3n2)-c2cc(Cl)ccc2OC4)cc1`, the activation was inactive: -0.351%.

Regarding `O=C(O)CNC(=O)c1ccccc1`, the activation was inactive: 9.99%. The value for `CCOC(=O)c1cc(C)n(CC2CCC(C(=O)Nc3ccc(OC)cc3)CC2)c1C` (stereo not given) was inactive: -13.6%; that for `CCCCc1ccc(C(=O)Nc2ccc3nc(N4CCN(CC)CC4)cc(C)c3c2)cc1` was inactive: -11.3%; that for `CCOC(=O)c1ccccc1NC(=O)CSc1nnc(CC)n2c1cc1occc12` was inactive: -10.4%. The value for `COc1ccc(C)cc1NC(=O)c1cc(S(=O)(=O)N2CCC(C)CC2)ccc1F` was inactive: -17.6%; that for `CC1=C(C(=O)NCc2cccc(F)c2)C2(CCCCCC2)OC1=O` was inactive: -20%; that for `Cc1ccc(-n2ncc(C(=O)Nc3ccc4c(c3)OCCO4)c2C2CCN(C(=O)OC(C)(C)C)CC2)cc1C` was inactive: -10.1%. The same measure for `COc1ccc(CNC(=O)c2cc(-c3ccc(Br)s3)nc3ccccc23)c(OC)c1`: inactive: -7.48%; for `COCCN1CCc2nc(SCC(=O)Nc3ccc(C)c(Cl)c3)[nH]c(=O)c2C1`: inactive: 15.6%. For the compound `COc1ccc(Nc2nc3ccc(C)cc3nc2-n2nc(C)cc2C)cc1Cl`, the activation was inactive: -15.5%.

With `COc1ccccc1N1CCN(C(=O)Cn2ncc3c2-c2cc(C)ccc2OC3)CC1`, the activation is inactive: -12.7%.

For the compound `CCOc1ccccc1CNC(=O)Cn1c(=O)c2cccn2c2ccc(F)cc21`, the activation was inactive: -12%. The value for `COc1ccccc1NC(=O)CC1Sc2ccc(C(F)(F)F)cc2NC1=O` (stereo not given) was active: 64.4%.

Take `CCOC(=O)c1noc2ncn(CC(=O)Nc3ccc(F)cc3Cl)c(=O)c12`: the activation is inactive: 11.2%. The same measure for `COc1ccc(-c2onc(C)c2C)cc1S(=O)(=O)NCc1cccs1`: inactive: -12.1%; for `CC1=C(C(=O)OCc2ccc(C)cc2)C(c2ccccc2C(F)(F)F)CC(=O)N1` (stereo not given): inactive: 10.7%.

For `CC1CCCCN1Cc1c(O)ccc2c(=O)c(-c3ccc(Cl)cc3)c(C(F)(F)F)oc12` (stereo not given), the activation is inactive: -17.5%. As for `CCOc1ccc(C(=O)Nc2ccc3c(c2)CCCN3S(=O)(=O)c2ccc(C)cc2)cc1`, the activation is inactive: -2.36%. The same measure for `COC(=O)c1c(NC(=O)c2ccc(Cl)c(Cl)c2)sc2c1CCCC2`: inactive: 6.34%; for `CCOC(=O)c1sc2ncn(CC(=O)Nc3ccc(F)cc3F)c(=O)c2c1C`: inactive: 11.7%; for `C#C[C@]1(O)CC[C@H]2[C@@H]3CCC4=CC(=O)CC[C@@H]4[C@H]3CC[C@@]21C`: active: 69.3%. The value for `CCOc1ccc(NC(=O)CSc2nnc3scc(-c4ccccc4)n23)cc1` was inactive: 30.8%; that for `CCCCCCCCCCCCCCCCCCOC[C@H](COP(=O)([O-])OCC[N+](C)(C)C)OC` was inactive: 8.26%.
